Results taken from the supplement of paper PMC4967469.
IC50 is the fitted dose that halves viability relative to control wells, and lower means more sensitive; fits outside the tested doses are given as limits. For AUC the same curve is integrated over the 256-fold range of doses and scaled to a fraction; it is 1 without any effect and falls as sensitivity rises. For some assays here: A top dose marked as inferred is not printed in the source and was worked back from the curve model. For some assays here: Where an entry number is given, a second screen of the drug exists; the two often differ.

Columns and labels:
Assay in all cases: Viability of human cancer cell lines after 72 h of drug (GDSC screen)
Epothilone B = compound: C/C(=C\c1csc(C)n1)[C@@H]1C[C@@H]2O[C@]2(C)CCC[C@H](C)[C@H](O)[C@@H](C)C(=O)C(C)(C)[C@@H](O)CC(=O)O1 [Epothilone B]; conditions: top dose 0.032 µM; top dose inferred
Description: (§1)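 Human cancer cell lines in 384-well plates, medium with 10% serum, drug for 72 h over a 256-fold dose range (nine 2-fold or five 4-fold steps up to the top dose). Adherent lines were fixed and stained with the nucleic acid dye Syto60, suspension lines read with resazurin; signal relative to control wells, capped at 0 and 100%. One two-parameter sigmoid per drug and line, fitted in a mixed model over all curves with the slope shared within a line.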

TPCA-1 = compound: NC(=O)Nc1sc(-c2ccc(F)cc2)cc1C(N)=O [TPCA-1]; conditions: top dose 20 µM
Description: as §1

PHA-793887 = compound: CC(C)CC(=O)Nc1n[nH]c2c1CN(C(=O)C1CCN(C)CC1)C2(C)C [PHA-793887]; conditions: top dose 10.24 µM
Description: as §1

Y-39983 = compound: C[C@@H](N)c1ccc(C(=O)Nc2ccnc3[nH]ccc23)cc1 [Y-39983]; conditions: top dose 20 µM; top dose inferred
Description: as §1

PLX4720 = compound: CCCS(=O)(=O)Nc1ccc(F)c(C(=O)c2c[nH]c3ncc(Cl)cc23)c1F [PLX4720]; conditions: top dose 10 µM
Description: as §1

[1] = screen: GDSC drug entry 1371, top dose inferred

Cell Line | AUC (Epothilone B) | IC50 (Epothilone B) [µM] | AUC (TPCA-1) | IC50 (TPCA-1) [µM] | AUC (PHA-793887) | IC50 (PHA-793887) [µM] | AUC (Y-39983) | IC50 (Y-39983) [µM] | AUC (PLX4720; screen: GDSC drug entry 1036) | IC50 (PLX4720; screen: GDSC drug entry 1036) [µM] | AUC (PLX4720; [1]) | IC50 (PLX4720; [1]) [µM]
SK-MEL-3 (melanoma, adherent) | 0.749 | 0.0118 | 0.791 | 10.6 | 0.955 | > 10.2 | 0.984 | > 20 | 0.781 | 4.85 | 0.766 | 4.24
SK-MEL-24 (melanoma, adherent) | 0.962 | > 0.032 | 0.741 | 7.22 | 0.983 | > 10.2 | 0.96 | > 20 |  |  | 0.649 | 1.77
SK-MEL-28 (melanoma, adherent) | 0.971 | > 0.032 | 0.966 | > 20 | 0.953 | > 10.2 | 0.981 | > 20 | 0.538 | 0.794 | 0.661 | 1.74
SK-MEL-30 (melanoma, adherent) | 0.446 | 0.00141 | 0.927 | > 20 | 0.785 | 4.64 | 0.96 | > 20 | 0.947 | > 10 | 0.981 | > 10
SK-MES-1 (lung squamous cell carcinoma, adherent) | 0.458 | 0.00152 | 0.844 | 16.2 | 0.843 | 8.23 | 0.984 | > 20 | 0.905 | > 10 | 0.912 | > 10
SK-N-AS (neuroblastoma, adherent) | 0.979 | > 0.032 | 0.889 | > 20 | 0.85 | 9.66 | 0.983 | > 20 | 0.979 | > 10 | 0.982 | > 10
SK-N-SH (neuroblastoma, adherent) | 0.525 | 0.00234 | 0.845 | 14.2 | 0.987 | > 10.2 | 0.981 | > 20 | 0.985 | > 10 | 0.979 | > 10
SK-OV-3 (ovary, adherent) | 0.583 | 0.00359 | 0.767 | 9.29 | 0.814 | 7.44 | 0.883 | > 20 | 0.975 | > 10 | 0.962 | > 10
SKG-IIIa (cervix, adherent) | 0.846 | > 0.032 | 0.98 | > 20 | 0.983 | > 10.2 | 0.983 | > 20 | 0.961 | > 10 | 0.977 | > 10
SKN (uterus, adherent) | 0.684 | 0.00734 | 0.975 | > 20 | 0.917 | > 10.2 | 0.875 | > 20 | 0.884 | > 10 | 0.919 | > 10
SKN-3 (head and neck, adherent) | 0.917 | > 0.032 | 0.893 | > 20 | 0.892 | > 10.2 | 0.952 | > 20 | 0.923 | > 10 | 0.981 | > 10
SN12C (kidney, adherent) | 0.723 |  | 0.947 | > 20 | 0.986 | > 10.2 | 0.98 | > 20 |  |  | 0.984 | > 10
SNG-M (endometrium, adherent) | 0.279 | 0.00048 | 0.739 | 5.94 | 0.614 | 1.31 | 0.827 | 11.9 | 0.84 | 6.7 | 0.875 | 9.5
SNU-182 (liver, adherent) | 0.678 | 0.00646 | 0.839 | 14.6 | 0.962 | > 10.2 | 0.934 | > 20 | 0.965 | > 10 | 0.947 | > 10
SNU-387 (liver, adherent) | 0.657 | 0.00584 | 0.856 | 19.7 | 0.916 | > 10.2 | 0.835 | 15.8 | 0.966 | > 10 | 0.982 | > 10
SNU-398 (liver, adherent) | 0.136 | 0.000134 | 0.761 | 7.35 | 0.749 | 3.45 | 0.933 | > 20 |  |  | 0.983 | > 10
SNU-423 (liver, adherent) | 0.406 | 0.00106 | 0.849 | 19.1 | 0.848 | 9.62 | 0.772 | 9.06 | 0.982 | > 10 | 0.972 | > 10
SNU-449 (liver, adherent) | 0.462 | 0.00156 | 0.782 | 9.17 | 0.986 | > 10.2 | 0.915 | > 20 | 0.946 | > 10 | 0.981 | > 10
SU8686 (pancreas, adherent) | 0.722 | 0.00929 | 0.967 | > 20 | 0.734 | 3.27 | 0.97 | > 20 | 0.983 | > 10 | 0.907 | > 10
SU-DHL-5 (B-cell lymphoma, suspension) | 0.362 | 0.000921 | 0.546 | 1.62 | 0.244 | 0.149 | 0.462 | 1.01 | 0.993 | > 10 | 0.9 | 7.14
SUIT-2 (pancreas, adherent) | 0.462 | 0.00157 | 0.444 | 0.873 | 0.947 | > 10.2 | 0.86 | 18.2 | 0.985 | > 10 | 0.985 | > 10
SW13 (adrenal gland, adherent) | 0.631 | 0.00461 | 0.988 | > 20 | 0.988 | > 10.2 | 0.988 | > 20 | 0.986 | > 10 | 0.977 | > 10
SW48 (large intestine, adherent) | 0.644 | 0.00499 | 0.82 | 11.4 | 0.913 | > 10.2 | 0.911 | > 20 | 0.986 | > 10 | 0.972 | > 10

Cell Line | AUC (Epothilone B) | IC50 (Epothilone B) [µM] | AUC (TPCA-1) | IC50 (TPCA-1) [µM] | AUC (PHA-793887) | IC50 (PHA-793887) [µM] | AUC (Y-39983) | IC50 (Y-39983) [µM] | AUC (PLX4720; screen: GDSC drug entry 1036) | IC50 (PLX4720; screen: GDSC drug entry 1036) [µM] | AUC (PLX4720; [1]) | IC50 (PLX4720; [1]) [µM]
SW156 (kidney, adherent) | 0.751 | 0.0116 | 0.897 | > 20 | 0.984 | > 10.2 | 0.93 | > 20 |  |  | 0.957 | > 10
SW620 (large intestine, adherent) | 0.363 | 0.000879 | 0.774 | 6.92 | 0.613 | 1.26 | 0.958 | > 20 | 0.99 | > 10 | 0.989 | > 10
SW626 (ovary, adherent) | 0.493 | 0.00191 | 0.857 | > 20 | 0.785 | 5.26 | 0.975 | > 20 | 0.983 | > 10 | 0.981 | > 10
SW756 (cervix, adherent) | 0.836 | 0.0271 | 0.973 | > 20 | 0.978 | > 10.2 | 0.969 | > 20 | 0.985 | > 10 | 0.983 | > 10
SW780 (bladder, adherent) | 0.986 | > 0.032 | 0.949 | > 20 | 0.968 | > 10.2 | 0.983 | > 20 | 0.967 | > 10 | 0.881 | > 10
SW837 (large intestine, adherent) | 0.512 | 0.00217 | 0.912 | > 20 | 0.901 | > 10.2 | 0.982 | > 20 |  |  | 0.98 | > 10
SW900 (lung squamous cell carcinoma, adherent) | 0.765 | 0.0135 | 0.93 | > 20 | 0.95 | > 10.2 | 0.977 | > 20 | 0.911 | > 10 | 0.982 | > 10
SW948 (large intestine, adherent) | 0.773 | 0.0188 | 0.903 | > 20 | 0.982 | > 10.2 | 0.934 | > 20 | 0.977 | > 10 | 0.967 | > 10
SW1088 (glioma, adherent) | 0.632 | 0.00519 | 0.945 | > 20 | 0.982 | > 10.2 | 0.973 | > 20 |  |  | 0.907 | > 10
SW1271 (small cell lung carcinoma, adherent) | 0.656 | 0.00584 | 0.782 | 9.75 | 0.849 | 9.57 | 0.81 | 12.6 | 0.931 | > 10 | 0.958 | > 10
SW1417 (large intestine, adherent) | 0.952 | > 0.032 | 0.881 | > 20 | 0.982 | > 10.2 | 0.986 | > 20 | 0.924 | > 10 | 0.946 | > 10
SW1463 (large intestine, adherent) | 0.82 | > 0.032 | 0.968 | > 20 | 0.978 | > 10.2 | 0.978 | > 20 |  |  | 0.975 | > 10
SW1573 (lung adenocarcinoma, adherent) | 0.771 | 0.0167 | 0.972 | > 20 | 0.93 | > 10.2 | 0.981 | > 20 | 0.969 | > 10 | 0.953 | > 10
SW1710 (bladder, adherent) | 0.068 | < 0.000125 | 0.796 | 9.67 | 0.981 | > 10.2 | 0.441 | 0.856 | 0.946 | > 10 | 0.96 | > 10
SW1783 (glioma, adherent) | 0.454 | 0.00152 | 0.972 | > 20 | 0.991 | > 10.2 | 0.981 | > 20 | 0.99 | > 10 | 0.984 | > 10
SW1990 (pancreas, adherent) | 0.836 | 0.0268 | 0.978 | > 20 | 0.951 | > 10.2 | 0.985 | > 20 |  |  | 0.933 | > 10
Saos-2 (osteosarcoma, adherent) | 0.977 | > 0.032 | 0.981 | > 20 | 0.973 | > 10.2 | 0.981 | > 20 | 0.972 | > 10 | 0.978 | > 10
SiHa (cervix, adherent) | 0.893 | > 0.032 | 0.987 | > 20 | 0.984 | > 10.2 | 0.987 | > 20 | 0.987 | > 10 | 0.976 | > 10
T47D (breast, adherent) | 0.909 | > 0.032 | 0.818 | > 20 | 0.77 | 6.15 | 0.978 | > 20 | 0.978 | > 10 | 0.959 | > 10
T84 (large intestine, adherent) | 0.257 | 0.000396 | 0.87 | 19.1 | 0.988 | > 10.2 | 0.94 | > 20 | 0.988 | > 10 | 0.988 | > 10
T98G (glioma, adherent) | 0.812 | 0.0155 | 0.929 | > 20 | 0.946 | > 10.2 | 0.96 | > 20 | 0.932 | > 10 | 0.961 | > 10
T-24 (bladder, adherent) | 0.813 | 0.0163 | 0.907 | > 20 | 0.926 | > 10.2 | 0.922 | > 20 |  |  | 0.825 | 5.66
T-T (oesophagus, adherent) | 0.251 | 0.000386 | 0.763 | 7.19 | 0.909 | > 10.2 | 0.906 | > 20 | 0.894 | > 10 | 0.944 | > 10
